This is one part of the list.
Tested on: S. aureus RN4220
Assay: growth inhibition call (relative growth <= 0.2)
Conditions: 50 µM

SMILES	growth inhibition call
Cc1noc(C)c1S(=O)(=O)Nc1ccc2c(c1)C(=O)N([C@H](C)CO)C[C@H](C)[C@@H](CN(C)S(=O)(=O)c1cn(C)cn1)OCCCC[C@H](C)O2	inactive
COc1ccc2c3c([nH]c2c1)[C@@H](CO)N(Cc1ccc(cc1)Cl)C[C@]13CCN(CC1)Cc1nccs1	inactive
COc1ccc(S(=O)(=O)Nc2ccc3c(c2)CC(=O)N([C@@H](C)CO)C[C@H](C)[C@H](CN(C)S(C)(=O)=O)O3)cc1	inactive
COc1ccc(NC(=O)N2C[C@@H](O)COC[C@H]3O[C@H](CC(=O)NC4Cc5ccccc5C4)CC[C@@H]32)cc1	inactive
COc1ccc(CN(C)C[C@H]2Oc3ccc(NC(=O)Nc4ccc(C(F)(F)F)cc4)cc3C(=O)N([C@H](C)CO)C[C@@H]2C)cc1	inactive
Cn1cnc(CCNC(=O)C[C@H]2CC[C@H]3[C@@H](COC[C@@H](O)CN3C(=O)Nc3ccc(C(F)(F)F)cc3)O2)c1	active
C[C@@H]1CCCCO[C@@H](CN(C)C)[C@H](C)CN([C@@H](C)CO)C(=O)c2cc(NC(=O)Nc3ccc(C(F)(F)F)cc3)ccc2O1	inactive
COc1ccc(CN(C)C[C@@H]2Oc3c(NS(=O)(=O)c4cn(C)cn4)cccc3C(=O)N([C@@H](C)CO)C[C@@H]2C)cc1	inactive
Cc1noc(C)c1NC(=O)Nc1ccc2c(c1)C(=O)N([C@@H](C)CO)C[C@@H](C)[C@@H](CN(C)Cc1ccc3c(c1)OCO3)OCCCC[C@H](C)O2	inactive
C[C@H]1CCCCO[C@@H](CN(C)Cc2ccc(C(F)(F)F)cc2)[C@@H](C)CN([C@@H](C)CO)C(=O)c2cc(NS(=O)(=O)c3ccc(F)cc3)ccc2O1	inactive
C[C@@H]1CCCCO[C@@H](CN(C)Cc2ccc3c(c2)OCO3)[C@H](C)CN([C@@H](C)CO)C(=O)c2cc(NS(=O)(=O)c3ccccc3)ccc2O1	inactive
COCC(=O)N(C)C[C@@H]1Oc2cc(C#Cc3cccnc3)ccc2S(=O)(=O)N([C@H](C)CO)C[C@@H]1C	inactive
C[C@@H]1CN([C@@H](C)CO)C(=O)Cc2cc(NS(=O)(=O)c3cccs3)ccc2O[C@@H]1CN(C)S(=O)(=O)c1cn(C)cn1	inactive
CC(C)(C)S(=O)N1Cc2cc(C(=O)Nc3ccc(-c4ccccc4)cc3)nc(-c3cccc(C#CCC4CCCC4)c3)c2[C@@H]1CCO (some centres undefined)	inactive
COc1ccc(S(=O)(=O)N(C)C[C@@H]2Oc3ccc(NS(=O)(=O)c4ccc(C)cc4)cc3C(=O)N([C@H](C)CO)C[C@H]2C)cc1	inactive
CC(C)NC(=O)Nc1ccc2c(c1)CC(=O)N([C@H](C)CO)C[C@H](C)[C@H](CN(C)S(=O)(=O)c1ccccc1)O2	inactive
C[C@H]1CCCCO[C@@H](CN(C)Cc2ccc(C(F)(F)F)cc2)[C@@H](C)CN([C@@H](C)CO)C(=O)c2cc(NC(=O)Nc3ccc4c(c3)OCO4)ccc2O1	inactive
CC(C)CC#Cc1ccc2c(c1)O[C@H](CN(C)Cc1cncnc1)[C@@H](C)CN([C@@H](C)CO)S2(=O)=O	inactive
C[C@@H]1CN([C@@H](C)CO)C(=O)c2cc(-c3cccnc3)cnc2O[C@H]1CN(C)C(=O)Nc1ccc2c(c1)OCO2	inactive
CCCCNc1ccc(C(=O)OCCOCCOCCOCCOCCOCCOCCOCCOCCOC)cc1	inactive
COc1ccc(NC(=O)N(C)C[C@@H]2Oc3ncc(C#C[C@H](C)O)cc3C(=O)N([C@@H](C)CO)C[C@H]2C)cc1	inactive
C[C@@H]1CCCCO[C@H](CN(C)S(=O)(=O)c2ccc(Cl)cc2)[C@@H](C)CN([C@H](C)CO)C(=O)c2cc(NC(=O)c3ccccc3)ccc2O1	inactive
Nc1ccccc1S(N)(=O)=O	inactive
C=CCC[C@@H](Cc1ccc(F)cc1)C(=O)OC[C@@H](NC(=O)[C@@H](CC=C)CC(=O)N[C@@H](CO)Cc1ccccc1)C(C)(C)C	inactive
CCNC(=S)NCC1CC1	inactive
CC(C)NC(=O)Nc1cccc2c1O[C@@H](CN(C)C(=O)Nc1ccc3c(c1)OCO3)[C@@H](C)CN([C@@H](C)CO)C2=O	inactive
C[C@@H]1CCCCO[C@@H](CN(C)CC2CCCCC2)[C@@H](C)CN([C@H](C)CO)C(=O)c2cc(NC(=O)C3CCCCC3)ccc2O1	inactive
Nc1ncn([C@H]2C[C@H](O)[C@@H](CO)O2)c(=O)n1	inactive
CC(C)(O)[C@H]1CC[C@@](C)([C@H]2[C@@H](O)C[C@@]3(C)[C@@H]4C[C@H](O[C@@H]5O[C@H](CO)[C@@H](O)[C@H](O)[C@H]5O)[C@H]5C(C)(C)[C@@H](O[C@@H]6OC[C@@H](O)[C@H](O)[C@H]6O)CC[C@@]56C[C@@]46CC[C@]23C)O1	inactive

Reference: the antibiotic and cytotoxicity screens of Wong et al. (2023)
